The other results are listed elsewhere or left out.
Test system: T1, C. trachomatis L2/434/Bu expressing GFP (CTL2-GFP)
T1 construct: L2/434/Bu GFP intracellular growth in HeLa cells
Set-up: species or system HeLa; C. trachomatis total inclusion area by high-content imaging, normalised to DMSO
Conditions: total inclusion area; 28.5 h, 10 µM; inhibitor
Procedure, shortened: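 Following bulk GFP and resorufin fluorescence reads, infected cells were fixed, Hoechst-stained and imaged on a high-content platform. Inclusion total area and number per well served as growth proxies; nuclei counts indicated host viability. MICs were derived as for the fluorescence assay.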

Row | Compound | % of control remaining
1 | COc1ccc(-c2nc(NC(=O)c3ccc(S(N)(=O)=O)cc3)cnc2-c2cccc(C)c2)cc1 [CBK037559] | 130.218
2 | CN(C)CCCNC(=O)c1cccc(Nc2cncc(-c3ccc(O)cc3)n2)c1 [CBK122669] | 117.362
3 | O=C(Cn1ccc2ccnc(-c3cccs3)c21)NCc1ccncc1 [CBK284734] | 100.275
4 | CC1CCCC(C)N1CC(O)COc1ccc(/N=C/c2ccccc2)cc1 (stereo not drawn) [CBK261764] | 88.8489
5 | CN1CCN(c2cccc(-c3cc4ccccc4s3)n2)CC1 [CBK037019] | 95.1222
6 | COc1ccc(CCN(C)C(=O)CCCc2cc3ccccc3[nH]2)cc1OC [CBK051152] | 84.5187
7 | COc1ccccc1-c1cc2nc(C)cc(N3CCOCC3)n2n1 [CBK304532] | 26.5683
8 | Fc1ccccc1CN1CCC(Oc2nccnc2OCC2COc3ccccc3O2)CC1 (stereo not drawn) [CBK082979T] | 95.0239
9 | C=C[C@H]1C[N@@]2CC[C@H]1C[C@@H]2CNS(=O)(=O)c1ccc(NC(C)=O)cc1 [CBK288749] | 99.6842
10 | C=CCNC(=O)CSc1nc2sc(C)c(C)c2c(=O)[nH]1 [CBK287350] | 80.3213
11 | Ic1cnn(Cc2nc(-c3ccccc3)no2)c1 [CBK269901] | 107.396
12 | CN(C)CCCN1C(=O)C(O)=C(C(=O)c2ccncc2)C1c1ccccc1 (stereo not drawn) [CBK287779] | 77.0812
13 | Cc1nc(Nc2ccc(Cl)cc2)nc(N2CCN(C)CC2)n1 [CBK023855] | 97.3718
14 | O=C(Nc1ccc2c(c1)OCCO2)N1CCN(c2ccccc2)CC1 [CBK155187] | 108.368
15 | CCOC(=O)c1c(NC(=O)Cn2cnc([N+](=O)[O-])n2)sc2c1CCC(C)C2 (stereo not drawn) [CBK263058] | 78.7673
16 | Clc1ccc(Nc2ncnc3c2cnn3-c2ccc(Cl)cc2)cc1 [CBK287356] | 89.912
17 | Cc1cnc2c(N3CCCC3)nc(-c3cccnc3)cn12 [CBK092277] | 100.829
18 | c1cnc(N2CCCC2)c(Sc2nc[nH]n2)n1 [CBK093737] | 104.007
19 | O=C1NC(=O)c2c(NC(=O)C3CCCCC3)cccc21 [CBK019837] | 60.9514
20 | Cc1oc(-c2ccc(Cl)cc2)cc1C(=O)CC#N [CBK047603] | 137.761
21 | Cc1[nH]c(=O)[nH]c(=O)c1CC(=O)N1CCCCC1CN1CCCCC1 (stereo not drawn) [CBK286344] | 98.3383

Row | Compound | % of control remaining
22 | CCC(C)(C)c1ccc(S(=O)(=O)N2CCCN(Cc3ccc4cccc(O)c4n3)CC2)cc1 [CBK063051] | 87.8795
23 | Cc1ccc(C(=O)COC(=O)c2cccc(C)c2O)cc1[N+](=O)[O-] [CBK264081] | 108.222
24 | CCOc1ccc(-c2nc(N)ncc2Oc2ccc(OC)cc2)c(O)c1 [CBK288105] | 119.661
25 | O=C(Nc1nc2c(Br)cccc2s1)c1nc2ccccc2s1 [CBK287619] | 87.3204
26 | CCC(O)Cn1nc(CCSC)nc1-c1cn(C)c(=O)[nH]c1=O (stereo not drawn) [CBK306588] | 75.2546
27 | Cc1ccc(CN(C2CCN(C)CC2)S(=O)(=O)c2ccc(F)cc2F)cc1 [CBK160448T] | 41.5723
28 | OCCN1CCN(c2nccnc2-c2ccncc2)CC1 [CBK038084] | 84.0066
29 | Cn1c(=O)n(C)c2cc(S(=O)(=O)NCC3(N)CCOCC3)ccc21 [CBK306266] | 82.5113
30 | Cn1cc(-c2ncc(OCCc3cccs3)nc2N)cn1 [CBK145167] | 137.162
31 | C/N=C1/SC(CC(=O)Nc2cccc(C(=O)O)c2)C(=O)N1C (stereo not drawn) [CBK265581] | 107.136
32 | Cn1ccnc1CN(Cc1ccccc1)C1CC(C)(C)NC(C)(C)C1 [CBK283177] | 90.4468
33 | Fc1cnc(Nc2ccccc2)nc1N1CCOCC1 [CBK287279] | 61.6782
34 | C/C(=C1/SC(=S)N(c2cccc(C(=O)O)c2)C1=O)c1cccc([N+](=O)[O-])c1 [CBK265168] | 104.581
35 | COc1ccc(F)c(CN(CC2CCNCC2)C(=O)Nc2c(C)noc2C)c1 [CBK049811] | 91.3072
36 | CNC(=O)c1ccc(-c2cccc(OC(F)(F)F)c2)nc1NCCOC [CBK106000] | 127.826
37 | CCCC/C=C/c1cncc(NC(C)CCCC(C)(C)O)n1 (stereo not drawn) [CBK065505] | 107.169
38 | Cc1cc(C)c(C)c(S(=O)(=O)N2CCN(c3ncnc4sc(C)c(C)c34)CC2)c1C [CBK265297] | 95.0468
39 | O=C1CCC(=O)N1Cc1cccc(-c2ccnc(NS(=O)(=O)c3ccc(Cl)cc3)n2)c1 [CBK067436] | 83.272
40 | O=C(/C=C/c1ccco1)Nc1sc2c(c1C(=O)O)CCC2 [CBK263181] | 103.766
41 | O=C(CCn1c(-c2cccnc2)cc2cccnc21)NC1CCCCC1 [CBK282647] | 113.079
42 | CC(C)c1cc(C(=O)N(C)Cc2cccc3ncccc23)n(C)n1 [CBK282567] | 98.9037

Row | Compound | % of control remaining
43 | CC(C)CNc1n[nH]c(=S)s1 [CBK016865] | 82.1661
44 | Cc1c(S(=O)(=O)N2CCN(C3CCN(C)CC3)CC2)sc2ccc(C(C)C)cc12 [CBK170352] | 49.4785
45 | COc1ccc(S(=O)(=O)N2CCC3(CC2)CC(=O)c2ccc(C)cc2O3)cc1OC [CBK166515] | 63.6791
46 | CC(=O)NCc1cccc(-c2cc(C(=O)Nc3ccc4c(c3)OCCO4)cnc2-c2cccnc2)c1 [CBK160658] | 101.298
47 | CC1CCN(CC(=O)Nc2sc3c(c2C(=O)NCc2ccccc2)CCCC3)CC1 [CBK268387] | 94.9268
48 | CCc1cc2c(NC(CCSC)C(=O)O)nc(C)nc2s1 (stereo not drawn) [CBK266709] | 108.316
49 | CC(Cc1cccs1)NC(=O)CSCc1ccco1 (stereo not drawn) [CBK283238] | 102.989
50 | c1ccc(C(=NCCN=C(c2ccccc2)c2ccccc2)c2ccccc2)cc1 [CBK262065] | 93.7781
51 | Cc1ccc(NC(=O)N2CCCC(CO)C2)cc1 (stereo not drawn) [CBK156065] | 78.7459
52 | COc1ccc(Cl)cc1N1CCN(CCCn2c(=O)[nH]c3ccccc32)CC1 [CBK138338] | 89.6063
53 | Nc1ncc(CN(Cc2ccco2)CC(O)Cn2c3ccccc3c3ccccc32)cn1 (stereo not drawn) [CBK286462] | 100.448
54 | O=C(C1CCCN(c2ccc3nncn3n2)C1)N1CCOCC1 (stereo not drawn) [CBK287901] | 126.801
55 | O=C(O)c1sc2ncccc2c1NS(=O)(=O)c1ccc(C(F)(F)F)cc1[N+](=O)[O-] [CBK050647] | 84.7376
56 | CC(=O)Nc1ccc2nc(NC(=O)c3ccc4c(c3)OCCO4)sc2c1 [CBK287571] | 54.3001
57 | O=c1c2snc(-c3ccc(F)cc3)c2ncn1C1CC1 [CBK282859] | 36.5117
58 | Cc1cc(O)ccc1C(CC(=O)O)c1ccccc1 (stereo not drawn) [CBK013350] | 98.7304
59 | CN(C)CCN(C)c1ccc(-c2ccc(F)c(Cl)c2)cn1 [CBK036979] | 105.881
60 | CC(=O)Nc1cc(S(=O)(=O)N2CCOCC2)c(Br)cc1C [CBK034334] | 33.8124
61 | O=C(CCn1c(=O)oc2ccccc21)N1CC=C(c2ccc(F)cc2)CC1 [CBK295602] | 109.959
62 | CN(C)CCCNC(=O)c1ccnc(/C=N/O)c1 [CBK288434] | 120.864
63 | CCn1c2ccccc2c2cc(C#N)c(=O)[nH]c21 [CBK013595] | 99.0375

Row | Compound | % of control remaining
64 | OCc1ccc(-n2cc(-c3ccc(F)cc3F)nn2)cc1 [CBK112982] | 102.766
65 | COc1ccccc1CC(=O)N1CCC(Cc2ccc(-c3ccccc3)cc2)(C(N)=O)CC1 [CBK285777] | 111.407
66 | O=C(NCCc1nc2cccnc2n1-c1ccccc1)c1ccncc1 [CBK288599] | 108.869
67 | COc1cc(C)c(C)cc1S(=O)(=O)n1ccnc1C [CBK287579] | 100.873
68 | O=C(Cn1c(-c2ccc(F)cc2)cc2cccnc21)NC1CC1 [CBK284861] | 99.59
69 | CC(=O)c1ccccc1NC(C#N)c1ccccc1 (stereo not drawn) [CBK057758] | 82.3084
70 | COc1ccc(C(C)C)cc1-c1ccc(NS(C)(=O)=O)c2ccccc12 [CBK083747] | 96.2896
71 | CCSc1nnc(Cc2cc(=O)[nH]c(=O)[nH]2)n1-c1ccc(F)cc1 [CBK287500] | 95.1486
72 | CCc1nnc(NS(=O)(=O)c2ccc(NCc3ccccc3O)cc2)s1 [CBK085149] | 65.8689
73 | CN1CCc2c(sc3nc(SCC(=O)c4ccccc4)n(-c4ccccc4)c(=O)c23)C1 [CBK262586] | 82.996
74 | Cc1noc(C2(O)CCN(Cc3sccc3Cl)C2)n1 (stereo not drawn) [CBK304863] | 43.181
75 | COC(=O)c1sccc1NC(=O)Cc1ccccc1[N+](=O)[O-] [CBK268146] | 95.29
76 | CN1CCCN(Cc2cccc3ccccc23)CC1 [CBK261531] | 96.8228
77 | CN(C)CCN1CCN(c2nc(Br)cn3ccnc23)CC1 [CBK037501] | 112.562
78 | Nc1ncc(-c2ccccc2CO)nc1N1CCN(CCO)CC1 [CBK063404] | 126.166
79 | O=C(NCCc1cccnc1)Nc1ccc(CN2CCCC2=O)cc1 [CBK306461] | 57.6549
80 | Cc1nc(C)n(C2CN(S(=O)(=O)c3ccc4scnc4c3)C2)n1 [CBK305889] | 81.1824
81 | Cc1c(NC(=S)NC(=O)C(C)C)cccc1-c1nc2ncccc2o1 [CBK269712] | 85.1065

— PMC12040169 (PLOS Biology, 2025)
